Measured values reported in US12296017B2, “Bioorthogonal compositions” (TAMBO, INC., priority 2017, dated 2025).
Values after ≈ are worked out from the molar mass of the structure shown. Like-named read-outs stand apart in the source and are kept apart here.

How the values were obtained:
[1] = FIG. 6
[2] = human plasma, in vitro, preliminary
[3] = system: MCF-7 (human breast cancer cell line) xenograft; assay: MCF-7 breast cancer xenograft in mice with pre-injected gel; type: in vivo
Protocol: A releasable form of doxorubicin was synthesized and tested in mice growing a xenograft of MCF-7 (human breast cancer cell line) or a xenograft of HT1080 (human soft tissue sarcoma). In a breast cancer model, mice (n=4) received two doses of doxorubicin or TCO-doxorubicin at 5 mg/kg every three days in the presence of pre-injected gel at the xenograft site.

[4] = mouse plasma, in vitro, preliminary
[5] = system: fibrosarcoma (HT-1080) xenografts; assay: HT-1080 fibrosarcoma xenograft in athymic nude mice with alginate TAG; conditions: for median tumor size: alginate TAG
[6] = system: luminescent methicillin-sensitive S. aureus (MSSA)
[7] = system: methicillin-sensitive S. aureus (MSSA)
[8] = thirty days after the last treatment dose (60 dpi)
[9] = two weeks after the last treatment dose (40 dpi), doxorubicin 3 x 14 μmoles/kg every 4 days, pro-drug 14 μmoles/kg daily for 10 days

**Q.** With `COc1cccc2c1C(=O)c1c(O)c3c(c(O)c1C2=O)CC(O)(C(=O)CO)CC3OC1CC(NC(=O)OC2C=CCCC(C)(C(=O)N3CCOCC3)CC2)C(O)C(C)O1` (stereo not drawn) [Example 1, Morpholine-TCO-Doxorubicin] as the compound, how does the “increase in aqueous solubility relative to TCO-doxorubicin” value [1] read?
**A.** Its value is “over 70 fold”.

**Q.** And the “solubility in saline relative to regular TCO-dox” value ([1]; saline)?
**A.** Its value is “over 70 times”.

**Q.** With `COc1cccc2c1C(=O)c1c(O)c3c(c(O)c1C2=O)CC(O)(C(=O)CO)CC3OC1CC(NC(=O)OC2C=CCCCCC2)C(O)C(C)O1` (stereo not drawn) [TCO-doxorubicin] as the compound, how does the half-life in plasma [2] read?
**A.** Its half-life in plasma is 6.8 h.

**Q.** What about the “overt signs of toxicity, including weight loss or changes in coat texture” value (14 μmoles/kg daily for 10 days with alginate TAG) of the same compound?
**A.** The value was “did not show any overt signs of toxicity”.

**Q.** And the “greater tumor reduction compared to regular doxorubicin” value ([3]; after two doses at 5 mg/kg every three days, pre-injected gel)?
**A.** Its value is 40%.

**Q.** And the “tumor response compared with vehicle control” value ([3]; two doses at 5 mg/kg every three days, pre-injected gel at xenograft site, p<0.05)?
**A.** The value was “significant tumor shrinkage”.

**Q.** What about the half-life in plasma [4] of the same compound?
**A.** The half-life in plasma was 19.3 h.

**Q.** What about the “tumor volume versus untreated mice” value ([5]; local injection of unmodified alginate (no TAG)) of the same compound?
**A.** The value was “No differences in tumor volume”.

**Q.** And the median tumor size [5, 8]?
**A.** Its median tumor size is “remained undetectable”.

**Q.** What about the median tumor size [5, 9] of the same compound?
**A.** The median tumor size was “undetectable”.

**Q.** For `CN[C@H](CC(C)C)C(=O)N[C@H]1C(=O)N[C@@H](CC(N)=O)C(=O)N[C@H]2C(=O)N[C@H]3C(=O)N[C@H](C(=O)N[C@H](C(=O)O)c4cc(O)cc(O)c4-c4cc3ccc4O)[C@H](O)c3ccc(c(Cl)c3)Oc3cc2cc(c3O[C@@H]2O[C@H](CO)[C@@H](O)[C@H](O)[C@H]2O[C@H]2C[C@](C)(NC(=O)OC3/C=C/CCCCC3)[C@H](O)[C@H](C)O2)Oc2ccc(cc2Cl)[C@H]1O` (stereo partly drawn) [Vanco-R-TCO], which “inhibition of bacterial growth” value ([6]; 2.0 nmoles combined with regular (unmodified) alginate gel) is on record?
**A.** The value was “did not inhibit bacterial growth”.

**Q.** What about the “minimum inhibitory concentration (MIC)” value ([6]; mixed with alginate TAG, luminescence measured 16 hours after addition of the bacteria) of the same compound?
**A.** Its value is 2.0 µM (≈ 3.2 µg/mL).

**Q.** What about the “bacterial activity by isothermal microcalorimetry” value ([7]; combination with TAG) of the same compound?
**A.** The value was “eliminated observable bacterial activity”.

**Q.** And the “bacterial activity by isothermal microcalorimetry” value ([7]; control alginate)?
**A.** Its value is “much-reduced affect”.

**Q.** With `COc1cccc2c1C(=O)c1c(O)c3c(c(O)c1C2=O)C[C@@](O)(C(=O)CO)C[C@@H]3O[C@H]1C[C@H](N)[C@H](O)[C@H](C)O1` [doxorubicin, reference compound] as the compound, how does the “reticulocyte counts (myelosuppression)” value (3 days after the end of therapy, alginate TAG) read?
**A.** The value was “dramatic decrease in reticulocytes”.

**Q.** And the “loss of body weight” value (HT-1080 xenograft mice, FIG. 4C)?
**A.** The value was “about 20 % of body weight”.

**Q.** And the median tumor size [5, 8]?
**A.** The median tumor size was “greater than 2000 mm^3”.

**Q.** What about the median tumor size [5, 9] of the same compound?
**A.** The median tumor size was “undetectable”.
